{
  "source": "the supplement of paper PMC3334620",
  "note": "In all, about 33,000 sequences were measured (“E-score (-0.5 to 0.5)”: median about -0.041, highest 2% from about 0.37 on). Some of the results follow.",
  "data": [
    {"molecular_target": "T1, Ecm22 (UniProt Q05958)", "T1 sequence": "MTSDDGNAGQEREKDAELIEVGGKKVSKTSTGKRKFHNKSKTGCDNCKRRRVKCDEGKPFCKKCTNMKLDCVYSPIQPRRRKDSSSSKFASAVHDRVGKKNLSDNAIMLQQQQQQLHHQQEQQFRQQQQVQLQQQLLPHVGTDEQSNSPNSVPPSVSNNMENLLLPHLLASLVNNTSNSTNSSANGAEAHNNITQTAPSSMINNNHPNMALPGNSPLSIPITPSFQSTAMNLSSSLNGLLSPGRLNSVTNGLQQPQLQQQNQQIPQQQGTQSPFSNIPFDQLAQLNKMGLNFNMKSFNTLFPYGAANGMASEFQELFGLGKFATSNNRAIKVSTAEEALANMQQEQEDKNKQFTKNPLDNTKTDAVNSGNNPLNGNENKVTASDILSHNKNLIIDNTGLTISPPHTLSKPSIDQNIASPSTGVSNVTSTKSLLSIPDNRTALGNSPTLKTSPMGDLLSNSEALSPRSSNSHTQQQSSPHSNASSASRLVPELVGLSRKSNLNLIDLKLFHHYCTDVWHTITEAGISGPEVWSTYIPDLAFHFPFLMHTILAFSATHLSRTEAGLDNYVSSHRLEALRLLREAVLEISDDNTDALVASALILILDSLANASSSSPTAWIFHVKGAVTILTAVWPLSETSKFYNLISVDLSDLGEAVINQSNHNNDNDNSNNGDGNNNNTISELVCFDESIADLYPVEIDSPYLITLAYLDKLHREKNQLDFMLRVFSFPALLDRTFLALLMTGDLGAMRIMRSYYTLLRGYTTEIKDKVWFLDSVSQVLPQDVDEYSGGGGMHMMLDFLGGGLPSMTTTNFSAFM", "assay": "PBM E-score (8-mer binding enrichment) (E-score (-0.5 to 0.5)); higher = stronger / more preferred TF binding; most listed sequences are background and not binding sites", "settings": "protein concentration: 200 nM; construct: GST-full length", "procedure": "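Universal 'all 10-mer' protein binding microarrays (Agilent AMADID 015681) probed with GST-tagged S. cerevisiae TFs (full-length or DBD) made by in vitro transcription/translation (PURExpress), about 100-200 nM. Bound TF was detected with fluorescent anti-GST. Each ungapped 8-mer (which stands for itself and its reverse complement) is scored by the PBM enrichment score (E-score), a modified Wilcoxon-Mann-Whitney statistic from -0.5 to +0.5, computed with the Universal PBM Analysis Suite. Scale: above 0.35 generally sequence-specific binding.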", "values": [
      {"sequence": "CGAATTCA", "PBM E-score": 0.122},
      {"sequence": "TAGAACTA", "PBM E-score": -0.0234},
      {"sequence": "CGGCAATA", "PBM E-score": 0.121},
      {"sequence": "AGCCAGGC", "PBM E-score": -0.0189},
      {"sequence": "ATGAGGCG", "PBM E-score": -0.186},
      {"sequence": "ATCGGTTG", "PBM E-score": 0.188},
      {"sequence": "CTGGGGGC", "PBM E-score": -0.144},
      {"sequence": "ACGATAGT", "PBM E-score": 0.278},
      {"sequence": "TGATCACA", "PBM E-score": -0.0891},
      {"sequence": "GGAGTTCA", "PBM E-score": -0.124},
      {"sequence": "AGCAATGA", "PBM E-score": -0.187},
      {"sequence": "AGCAACGG", "PBM E-score": 0.203},
      {"sequence": "ACTCACGA", "PBM E-score": 0.125},
      {"sequence": "ATTTTTAG", "PBM E-score": -0.195},
      {"sequence": "CACAATCC", "PBM E-score": -0.0104},
      {"sequence": "AAGGAGCA", "PBM E-score": -0.186},
      {"sequence": "CTCGACAG", "PBM E-score": -0.066},
      {"sequence": "CTGGTGTC", "PBM E-score": 0.0518},
      {"sequence": "TCGTCGCA", "PBM E-score": 0.248},
      {"sequence": "AACGAACT", "PBM E-score": 0.354},
      {"sequence": "CCAAACTA", "PBM E-score": -0.0739},
      {"sequence": "CGGAAAGA", "PBM E-score": 0.0112},
      {"sequence": "GAGCTGCC", "PBM E-score": -0.109},
      {"sequence": "CCATAACC", "PBM E-score": 0.0085},
      {"sequence": "GACACTGC", "PBM E-score": -0.0959},
      {"sequence": "AGCCAAAT", "PBM E-score": 0.0246},
      {"sequence": "AAATGTCG", "PBM E-score": 0.0844},
      {"sequence": "CCGTCTGC", "PBM E-score": -0.142},
      {"sequence": "TATTACAA", "PBM E-score": 0.0408},
      {"sequence": "ATGCGGTA", "PBM E-score": -0.0155},
      {"sequence": "ACAACGAG", "PBM E-score": 0.288},
      {"sequence": "CTAGGGGA", "PBM E-score": -0.259},
      {"sequence": "CAGTCACA", "PBM E-score": -0.117},
      {"sequence": "AATCTCAT", "PBM E-score": 0.115},
      {"sequence": "CCCAGTCA", "PBM E-score": -0.273},
      {"sequence": "CCGGATCC", "PBM E-score": -0.0236},
      {"sequence": "ACCTGAAA", "PBM E-score": -0.0119},
      {"sequence": "AAGGGAGC", "PBM E-score": -0.119},
      {"sequence": "ACTTCCGG", "PBM E-score": -0.171},
      {"sequence": "CAGCGGTC", "PBM E-score": -0.191},
      {"sequence": "AAGCATGT", "PBM E-score": 0.0393},
      {"sequence": "GATAAAGC", "PBM E-score": -0.0561},
      {"sequence": "GTAGTCGA", "PBM E-score": 0.0287},
      {"sequence": "AGTACATG", "PBM E-score": -0.0514},
      {"sequence": "GGGTGTAC", "PBM E-score": 0.103},
      {"sequence": "ACCTGACA", "PBM E-score": -0.2},
      {"sequence": "ACTATGTG", "PBM E-score": -0.13},
      {"sequence": "ATTACTGG", "PBM E-score": -0.321},
      {"sequence": "GCACCTTA", "PBM E-score": -0.19},
      {"sequence": "CAGGATTC", "PBM E-score": -0.247},
      {"sequence": "AGCGCAGG", "PBM E-score": -0.208},
      {"sequence": "ACAGTCTC", "PBM E-score": -0.0978},
      {"sequence": "CGCGAAGC", "PBM E-score": 0.176},
      {"sequence": "CGATCACG", "PBM E-score": 0.121},
      {"sequence": "CGGCCACG", "PBM E-score": -0.283},
      {"sequence": "CAGCAGGC", "PBM E-score": -0.0464},
      {"sequence": "CGGACTAC", "PBM E-score": -0.0358},
      {"sequence": "ACTTAGAG", "PBM E-score": -0.335},
      {"sequence": "CTCGCAGA", "PBM E-score": 0.0487},
      {"sequence": "ATCCTACC", "PBM E-score": -0.186},
      {"sequence": "AGCCGGTG", "PBM E-score": -0.181},
      {"sequence": "GAGGGTAC", "PBM E-score": 0.152},
      {"sequence": "AGGTGATC", "PBM E-score": -0.0593},
      {"sequence": "ACGTCCAT", "PBM E-score": -0.191},
      {"sequence": "GGAATTGA", "PBM E-score": -0.0469},
      {"sequence": "ACTAATGA", "PBM E-score": 0.0403},
      {"sequence": "ATTGAAAC", "PBM E-score": -0.0355},
      {"sequence": "TCCGCTCA", "PBM E-score": -0.183},
      {"sequence": "CACTCGTA", "PBM E-score": 0.458},
      {"sequence": "GGGTTACA", "PBM E-score": 0.0372},
      {"sequence": "ACGTATTA", "PBM E-score": 0.235},
      {"sequence": "CGTCGAAC", "PBM E-score": -0.0061},
      {"sequence": "AGACAAAC", "PBM E-score": -0.0317},
      {"sequence": "CTAGTGGC", "PBM E-score": -0.276},
      {"sequence": "AACAGGTA", "PBM E-score": -0.0274},
      {"sequence": "AATAGGCC", "PBM E-score": -0.049},
      {"sequence": "CTACCGAG", "PBM E-score": 0.108},
      {"sequence": "ACATGCAG", "PBM E-score": -0.0552},
      {"sequence": "CTTTAATA", "PBM E-score": -0.0217},
      {"sequence": "CCTCGACC", "PBM E-score": -0.0654},
      {"sequence": "CTCAGCGA", "PBM E-score": 0.0368},
      {"sequence": "AAGCGTGA", "PBM E-score": -0.184},
      {"sequence": "CCGGATGA", "PBM E-score": -0.0739},
      {"sequence": "AGCAAGCC", "PBM E-score": -0.00874},
      {"sequence": "CAAACGAA", "PBM E-score": 0.438},
      {"sequence": "AGTGGTCA", "PBM E-score": 0.0348}
    ]}
  ]
}
